According to the supplement of paper PMC10126150:
Sequences with one replicate were seen in a single cluster, so their values are uncertain.

Tested on: ATP
Experiment: switch fluorescence ratio, 500 uM ATP over buffer (Cy3 cluster intensity, sum of 5 cycles each) (fold (ratio)); higher = stronger signal-on switching upon ATP binding; sequences stand for … in TCGTCGGCAGCGTCAGATGTGTATAAGAGACAGTTTTTTTTTTTTTTTTTTTTTTTTT…TC
Conditions: aptamer strand: ATP DNA aptamer (quencher-CACCTGGGGGAGTATTGCGGAGGAAGG + anchor), 100 nM annealed; ATP concentration: 500 uM; one replicate
Procedure, shortened: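 Cy3-labelled switching-strand clusters on a modified Illumina MiSeq flow-cell were annealed to 100 nM quencher-labelled ATP aptamer and imaged first in selection buffer, then after 15 min with 500 uM ATP at 22 °C. NaOH stripping and re-annealing separated each of five buffer/ATP cycles, and clusters outside 100-1000 RFU were excluded. The fluorescence ratio sums target-cycle Cy3 intensity over buffer-cycle Cy3 intensity per cluster and averages it per switch-domain sequence.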
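Further: ATP exposure 15 min at 22 °C before imaging.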

GTTAGACGTA
switch fluorescence ratio: 1.02

TAAGACAAGC
switch fluorescence ratio: 1

AGCGAGGCTC
switch fluorescence ratio: 1.18

AGCGGAGGAT
switch fluorescence ratio: 1.02

CTGCGCGCAG
switch fluorescence ratio: 0.99

CATAAGCCGG
switch fluorescence ratio: 1.06

TTCAGGACGT
switch fluorescence ratio: 1.02

TATGCCGTGC
switch fluorescence ratio: 1

CGGGTGCCGG
switch fluorescence ratio: 0.984

ACATTTGTTC
switch fluorescence ratio: 0.997

GGTCGTGGGG
switch fluorescence ratio: 1.01

GGTATTCGCT
switch fluorescence ratio: 0.988

GAGCTGGTCT
switch fluorescence ratio: 1.07

TTCCCGTG
switch fluorescence ratio: 0.973

CATACTCCT
switch fluorescence ratio: 1.37

ATGGAAGCGT
switch fluorescence ratio: 1.01

GAACTCTAAA
switch fluorescence ratio: 1.02

ACACGCACCT
switch fluorescence ratio: 1.64

TCGCTTCGTG
switch fluorescence ratio: 0.98

TAAACACTTC
switch fluorescence ratio: 1.09

ACATGGGAAA
switch fluorescence ratio: 1

TGAAGAACAT
switch fluorescence ratio: 1.05

TTTTAGACCC
switch fluorescence ratio: 1

TGACTGCATG
switch fluorescence ratio: 1.07

GACGTCGTAA
switch fluorescence ratio: 1.08

ACCTAATATT
switch fluorescence ratio: 1.02

TGAAGGTCTG
switch fluorescence ratio: 1.02

ACACACTTAT
switch fluorescence ratio: 1.2

TCTCGACGGG
switch fluorescence ratio: 0.971

GGTGGCTGTG
switch fluorescence ratio: 0.983

TTAACTATGT
switch fluorescence ratio: 0.99

GTCAGTAGGT
switch fluorescence ratio: 0.972

CGGGGTTCAC
switch fluorescence ratio: 0.962

GGACAGCTAT
switch fluorescence ratio: 1.12

TTACTACCCG
switch fluorescence ratio: 1.11

CGAATATACT
switch fluorescence ratio: 1.17

ACCCTAGTGG
switch fluorescence ratio: 0.985

GCACCCTCTA
switch fluorescence ratio: 1.02

GGTTCAAGTC
switch fluorescence ratio: 1.04

TAGATGGGCA
switch fluorescence ratio: 1

TGGTAAGGAT
switch fluorescence ratio: 0.969

AGCGTGATGA
switch fluorescence ratio: 1.01

CGTCGTCTTA
switch fluorescence ratio: 0.996

GTGATAACTC
switch fluorescence ratio: 1.15

GTATTTGTAA
switch fluorescence ratio: 1.02

CTTGGATCGT
switch fluorescence ratio: 0.995

TACTCAGGGG
switch fluorescence ratio: 1.01

GTAGTTGCTG
switch fluorescence ratio: 1.03

TCGACCGCGT
switch fluorescence ratio: 1.2

TCTAACTTGA
switch fluorescence ratio: 1.01

AATGAGAAT
switch fluorescence ratio: 1.02

TGACTACACT
switch fluorescence ratio: 1.25

AAGCTGCTAG
switch fluorescence ratio: 0.98

CTGGGGA
switch fluorescence ratio: 1.01

AGCCGGGGAT
switch fluorescence ratio: 0.961

CTCAAATGCT
switch fluorescence ratio: 1.06

ACCGCAACGA
switch fluorescence ratio: 1.49

CGAGACTATG
switch fluorescence ratio: 1.02

TGCGGGAAAC
switch fluorescence ratio: 0.978

ATTCCCTATG
switch fluorescence ratio: 1.06

GATGAGTGGA
switch fluorescence ratio: 1.04

AACCCGGTCG
switch fluorescence ratio: 1.09

CGCTCTCCTG
switch fluorescence ratio: 1.21

GGTGGGGCAA
switch fluorescence ratio: 1.06

GTAGTGGGAA
switch fluorescence ratio: 0.973

AGGTGTGTGA
switch fluorescence ratio: 1.01

GATGGTATGC
switch fluorescence ratio: 0.992

GGTCAAGGCG
switch fluorescence ratio: 1

TTAATGTGCA
switch fluorescence ratio: 0.979

AAAAACTTGA
switch fluorescence ratio: 1.01

CCTAAGTAGA
switch fluorescence ratio: 1.05

AGACGTAGAT
switch fluorescence ratio: 0.994

AGGTGTCCAA
switch fluorescence ratio: 1

TAATTTCCAC
switch fluorescence ratio: 1.05

GGGGCGAATG
switch fluorescence ratio: 0.96

CACTCGATGG
switch fluorescence ratio: 0.998

TGTAGTTATG
switch fluorescence ratio: 0.998

ATAGCTCGTA
switch fluorescence ratio: 1.01

TATTTTAGAC
switch fluorescence ratio: 0.997

CTAGCTAGAG
switch fluorescence ratio: 1.05

ATTGGAGTTG
switch fluorescence ratio: 0.924

ATGTTGAAAT
switch fluorescence ratio: 0.992

TTTATCTGAG
switch fluorescence ratio: 1.09

CCCATGAATG
switch fluorescence ratio: 0.991

TTGCTATCCG
switch fluorescence ratio: 0.98

ACTGGACAG
switch fluorescence ratio: 1

GCTGTACTTG
switch fluorescence ratio: 1

GCGTAGTGCT
switch fluorescence ratio: 0.991

CTACTCTTTG
switch fluorescence ratio: 1.03

TTGTGCCCGC
switch fluorescence ratio: 1.48

AATTCGTAGG
switch fluorescence ratio: 0.956

TTCCCATGGT
switch fluorescence ratio: 1.18

AGAAAGAATA
switch fluorescence ratio: 0.981

TCTTGACACA
switch fluorescence ratio: 1.04

GAGCAAACAT
switch fluorescence ratio: 1.12

TGGGTGTCAA
switch fluorescence ratio: 1.04

AACTATTACG
switch fluorescence ratio: 1.09

ACGAGGTACG
switch fluorescence ratio: 1.08

AGTCTACGCG
switch fluorescence ratio: 1.01

TTAAACTAAT
switch fluorescence ratio: 0.987

AGGGATGTTC
switch fluorescence ratio: 0.961

CGGCAGAATG
switch fluorescence ratio: 1.03

ATAAAGTACC
switch fluorescence ratio: 1.37

GCGACGCTTT
switch fluorescence ratio: 1.58

GGACACGCTT
switch fluorescence ratio: 1.01

GGTTTGGAGT
switch fluorescence ratio: 0.911

TGTGGTTTCG
switch fluorescence ratio: 0.997

CCGTACAGTT
switch fluorescence ratio: 1.07

GAGCGCACTA
switch fluorescence ratio: 1.19

ATATGCTAGG
switch fluorescence ratio: 0.968

GCAATCCCAT
switch fluorescence ratio: 1.07

CGTTAGATGC
switch fluorescence ratio: 1.1

ACGTGCGGCC
switch fluorescence ratio: 1.03

CCCCTGGGGG
switch fluorescence ratio: 1.01

AATGACACGA
switch fluorescence ratio: 1.07

TCCGGGTAT
switch fluorescence ratio: 3.31

ATGGGAAA
switch fluorescence ratio: 1.01

ACTCATAGCT
switch fluorescence ratio: 1.05

TCTTTGTAAG
switch fluorescence ratio: 1.19

CCGTTAACCG
switch fluorescence ratio: 1.04

ACTATGGCTT
switch fluorescence ratio: 1.03

AGCCTTATCA
switch fluorescence ratio: 1.03

GTTTGAAACG
switch fluorescence ratio: 0.983

CATTGCTACG
switch fluorescence ratio: 1.06

GCCGCCGCAC
switch fluorescence ratio: 1.92

ATATCGCTGT
switch fluorescence ratio: 1.01

CGGGCTACCA
switch fluorescence ratio: 1.05

AAGAGGCGAA
switch fluorescence ratio: 0.981

CAGGAGATTA
switch fluorescence ratio: 1.01

AGGGTCGTTG
switch fluorescence ratio: 0.991

TTACATAGCT
switch fluorescence ratio: 1.01

GGACTGGGCA
switch fluorescence ratio: 1.01

GGATGTGGGC
switch fluorescence ratio: 1.04

CGGTTCCTC
switch fluorescence ratio: 1.07

TATGAACGAA
switch fluorescence ratio: 1.02

AGGAGCTGAC
switch fluorescence ratio: 1.37

GCCGTTGGCA
switch fluorescence ratio: 1.01

CTAGGGACGG
switch fluorescence ratio: 1.01

TTGTATTTCG
switch fluorescence ratio: 1.01

CCCCGAACCG
switch fluorescence ratio: 1.17

AGGTTGACCG
switch fluorescence ratio: 1.03

AAGATCCACC
switch fluorescence ratio: 1.06

GAATACCGTT
switch fluorescence ratio: 0.932

AGTACATAGA
switch fluorescence ratio: 1.04

TCTGTTTCAC
switch fluorescence ratio: 1.04

TTCGGAAGTG
switch fluorescence ratio: 0.975

ACATACCTGA
switch fluorescence ratio: 1.21

AGGACCATAA
switch fluorescence ratio: 1.03

ATAATTTTA
switch fluorescence ratio: 0.972

CGCAACTTCA
switch fluorescence ratio: 1.59

GATACAGAGC
switch fluorescence ratio: 1.01

GGGATAAAAA
switch fluorescence ratio: 0.987

TATTGCCTGG
switch fluorescence ratio: 1.04

GCTCCAAAGA
switch fluorescence ratio: 1.25

AATATCTCTC
switch fluorescence ratio: 1.04

TACTCCAAGG
switch fluorescence ratio: 1.29

ACTATTTACC
switch fluorescence ratio: 1.13
